In all, about 310,000 compounds went through this assay and about 14,000 (4.5%) showed an effect of 50% or more. Effects have a minus sign here. The list shows a part of the results.
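Also: peak tail current of the secondary pulse compared with the same well before compound.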

The experiment deals with human ether-à-go-go-related gene (hERG) potassium channel (human, UniProt Q12809). The experiment is described as follows: primary screen, population patch clamp on CHO cells stably expressing hERG.
Chain of human ether-à-go-go-related gene (hERG) potassium channel (Q12809 whole entry, looked up): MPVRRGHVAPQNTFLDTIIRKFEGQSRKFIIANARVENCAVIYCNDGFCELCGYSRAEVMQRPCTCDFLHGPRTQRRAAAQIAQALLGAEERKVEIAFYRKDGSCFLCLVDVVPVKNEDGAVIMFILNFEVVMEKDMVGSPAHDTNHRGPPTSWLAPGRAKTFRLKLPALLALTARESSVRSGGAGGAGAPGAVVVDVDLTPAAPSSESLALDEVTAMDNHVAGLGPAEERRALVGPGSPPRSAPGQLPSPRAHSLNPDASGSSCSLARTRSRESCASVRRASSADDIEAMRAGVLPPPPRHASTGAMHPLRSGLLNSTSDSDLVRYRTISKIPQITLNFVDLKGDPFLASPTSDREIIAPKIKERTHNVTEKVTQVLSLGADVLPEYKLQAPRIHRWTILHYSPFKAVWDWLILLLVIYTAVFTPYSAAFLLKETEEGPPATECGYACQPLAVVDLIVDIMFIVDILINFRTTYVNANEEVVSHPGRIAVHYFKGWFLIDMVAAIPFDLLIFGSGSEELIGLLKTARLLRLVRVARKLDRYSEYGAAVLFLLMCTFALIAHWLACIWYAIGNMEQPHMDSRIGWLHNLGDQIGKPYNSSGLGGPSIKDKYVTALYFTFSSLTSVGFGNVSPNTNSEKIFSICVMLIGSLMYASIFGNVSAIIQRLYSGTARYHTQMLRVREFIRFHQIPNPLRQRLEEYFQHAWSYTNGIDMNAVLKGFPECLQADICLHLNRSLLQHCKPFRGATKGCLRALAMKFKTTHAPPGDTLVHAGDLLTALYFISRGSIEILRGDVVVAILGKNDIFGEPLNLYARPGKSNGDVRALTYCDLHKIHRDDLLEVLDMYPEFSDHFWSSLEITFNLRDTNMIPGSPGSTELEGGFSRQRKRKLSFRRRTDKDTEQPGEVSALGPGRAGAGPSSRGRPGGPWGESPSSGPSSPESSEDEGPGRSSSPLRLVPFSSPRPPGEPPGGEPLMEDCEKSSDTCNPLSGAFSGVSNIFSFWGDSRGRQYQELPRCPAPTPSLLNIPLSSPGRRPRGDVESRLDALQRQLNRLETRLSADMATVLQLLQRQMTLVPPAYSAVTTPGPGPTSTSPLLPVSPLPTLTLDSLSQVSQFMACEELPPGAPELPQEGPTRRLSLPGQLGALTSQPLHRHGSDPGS
For the compound `O=C(CN1c2cccc3cccc(c23)S1(=O)=O)N1CCN(c2ccc(F)cc2)CC1`, the “hERG current change (%, negative = inhibition) at 10uM” value is -42.1%. Next, `Cc1ccc(S(=O)(=O)n2[nH]c(=O)cc2NC(=O)c2cccs2)cc1`: -0.667%. For the compound `Cc1cc(C)n(CCC(=O)N=Nc2c(O)[nH]c3ccccc23)n1`, the “hERG current change (%, negative = inhibition) at 10uM” value came to 5.66%.

Regarding `N#CCCN1CCCN(CCC#N)CCN(CCC#N)CCCN(CCC#N)CC1`, the “hERG current change (%, negative = inhibition) at 10uM” value was determined as 8.67%.

For `COc1cccc(NS(=O)(=O)c2ccc(S(=O)(=O)N3CCCC3)cc2)c1`, the “hERG current change (%, negative = inhibition) at 10uM” value is -1.76%. Next, `COc1ncnc2c1NC(=O)CS2`: 9.87%. Consider `Cc1cccc(OCC(=O)Nc2nonc2NC(=O)COc2cccc(C)c2)c1`, for which the “hERG current change (%, negative = inhibition) at 10uM” value turned out to be 7.84%. Consider `Cc1ccc(N2C(=O)Nc3cc(Cl)c(Cl)cc3N2O)cc1Cl`, for which the “hERG current change (%, negative = inhibition) at 10uM” value stood at 15.9%. Turning to `Cc1ccc(CN2CCN(C3CCCC3)C(CCO)C2)s1` (centres unmarked), the “hERG current change (%, negative = inhibition) at 10uM” value is given as -22.4%. In the case of `Cc1ccc(S(=O)(=O)/N=C(/Nc2ccc(F)cc2F)c2ccc(F)cc2)cc1`, the “hERG current change (%, negative = inhibition) at 10uM” value was found to be 7.35%. As for `Cc1ccc(S(=O)(=O)N2CCOCC2)cc1NC(=O)CSc1ccc(Cl)cc1`, the “hERG current change (%, negative = inhibition) at 10uM” value was -51.3%. `CCOc1ccccc1N(CC(=O)NC1CCCCC1)S(=O)(=O)c1ccc(C)cc1`: the “hERG current change (%, negative = inhibition) at 10uM” value is listed as -7.2%.

On to `CCN=C1S/C(=C\c2cn(C(C)=O)nc2-c2ccccc2)C(=O)N1CC`, for which the “hERG current change (%, negative = inhibition) at 10uM” value was determined as 8.23%. For `O=C(CNC(=O)c1ccccc1F)NCCc1ccc(Cl)cc1`, the “hERG current change (%, negative = inhibition) at 10uM” value worked out at 4.5%.

For `CC(C)C(NC(=O)CCNC(=O)c1ccc([N+](=O)[O-])cc1)c1nc2ccccc2[nH]1` (centres unmarked), the “hERG current change (%, negative = inhibition) at 10uM” value is given as 3.16%. With `COc1cc(C(=O)Nc2ccccn2)cc(OC)c1OC`, the “hERG current change (%, negative = inhibition) at 10uM” value is listed as 14.3%. With `Cc1ccc(C)c(OCCCCN2CCNCC2)c1C.O=C(O)C(=O)O`, the “hERG current change (%, negative = inhibition) at 10uM” value was found to be 4.42%.

Turning to `COc1ccccc1NC(=O)C1CCCN1C(=O)NC1CCCCC1` (centres unmarked), the “hERG current change (%, negative = inhibition) at 10uM” value was determined as 0.823%.

For the compound `CCCCSc1nc2ccccc2n1CC(=O)O`, the “hERG current change (%, negative = inhibition) at 10uM” value is reported as 9.82%. In the case of `O=C(CSC1=NCCS1)NCc1ccco1`, the “hERG current change (%, negative = inhibition) at 10uM” value is recorded as 19.8%.

In the case of `CC1=C(C)C(=O)C(CCCCC#CCCCC#CCO)=C(C)C1=O`, the “hERG current change (%, negative = inhibition) at 10uM” value was -11.9%.

As for `Cc1c(Cl)cccc1N1C(=O)c2ccccc2C1=O`, the “hERG current change (%, negative = inhibition) at 10uM” value was found to be 6.05%. Turning to `Cc1cc(NC(=O)CCC(=O)N(Cc2ccco2)C(C(=O)NC2CCCC2)c2ccccc2C)no1` (centres unmarked), the “hERG current change (%, negative = inhibition) at 10uM” value is recorded as -41.4%. Next, `O=C(CCSc1ccccc1)NC(=O)COC(=O)C1CCCCC1`: 26.2%; `COc1ccccc1CN1C[C@@H]2C[C@@H](c3[nH]c4c(C)cccc4c3C)N3CCC[C@@]23C1=O`: -26.7%.

Take `O=C(Nc1ccon1)c1ccc(Br)o1`: the “hERG current change (%, negative = inhibition) at 10uM” value turned out to be 3.85%. Take `CCOC(=O)c1[nH]cnc1C(=O)N1CCC(C)CC1`: the “hERG current change (%, negative = inhibition) at 10uM” value is 23.1%. In the case of `O=C(NCc1ccc2c(c1)OCO2)c1cnc2ccccn2c1=O`, the “hERG current change (%, negative = inhibition) at 10uM” value is reported as -6.29%. As for `COc1cc(NC(=O)Cn2nnc(-c3ccncc3)n2)cc(OC)c1`, the “hERG current change (%, negative = inhibition) at 10uM” value is -0.328%. Under `Cc1cc(C)c(C)c(C(=O)COC(=O)CNC(=O)CN2C(=O)c3ccccc3C2=O)c1C` stands 6.72%.

Regarding `CCc1nnc(NC(=O)c2ccc(S(=O)(=O)N3CCCCC3)cc2)s1`, the “hERG current change (%, negative = inhibition) at 10uM” value stood at 17.5%. Take `COc1ccc(OC)c(C(C)NC(=O)c2ccco2)c1` (centres unmarked): the “hERG current change (%, negative = inhibition) at 10uM” value was -8.81%.

On to `Cn1c(=O)c(=O)n(C)c2cc(S(=O)(=O)N3CCc4ccccc43)ccc21`, for which the “hERG current change (%, negative = inhibition) at 10uM” value is on record as -34.2%. Next, `Cc1ccc(C2=NNC(=O)C(c3ccc(Cl)cc3)C2)cc1` (centres unmarked): 9.79%. Regarding `CCOC(=O)N1CCN(C(=O)c2sc3nc(-c4ccc(F)cc4)cn3c2C)CC1`, the “hERG current change (%, negative = inhibition) at 10uM” value was -62.1%. As for `COc1cc(/C=C2\C(=O)NC(=O)N(c3ccc(C)cc3)C2=O)cc(OC)c1O`, the “hERG current change (%, negative = inhibition) at 10uM” value was found to be 5.19%. `O=C(Cn1c(=O)oc2cc(S(=O)(=O)N3CCCC3)ccc21)NCc1ccccn1`: the “hERG current change (%, negative = inhibition) at 10uM” value was determined as 0.635%. Regarding `CCCCCCCC1CC(/C(C)=N/NC(N)=O)OC1=O` (centres unmarked), the “hERG current change (%, negative = inhibition) at 10uM” value is recorded as -45.3%. Under `CCOC(=O)C1=NN(c2ccccc2)C(=O)/C1=C\c1ccc(N(C)C)cc1` stands 21.1%; under `O=C(O)CCC(=O)Nc1sc2c(c1C(=O)Nc1ccccc1)CCCCC2`, 13.2%. Turning to `Cc1[nH]c2ccccc2c1Cc1nnc(SCC(N)=O)o1`, the “hERG current change (%, negative = inhibition) at 10uM” value is reported as 7.28%.

`Cc1ccc(N(CC(O)CN2CCOCC2)S(=O)(=O)c2ccc3ccccc3c2)cc1` (centres unmarked): the “hERG current change (%, negative = inhibition) at 10uM” value is listed as -67.4%. Next, `CN(C)S(=O)(=O)c1cc(NC(=O)COC(=O)CCc2ccccc2)ccc1Cl`: -9.18%; `COC(=O)CSc1nc(C(C)C)nc2ccccc12`: -6.41%.

The values above are taken from PMC4336329 (PLoS ONE, 2015).
